B1: AS06750VH2 HCAb (Fc fusion)
chain: EVQLVESGGGLVQPGGSLRLSCAASGRTFLTYAVGWFRQAPGKGLEWVAGIRWSGGYTDYADSVKGRFTISRDNSKNTVYLQMNSLRAEDTAVYYCAAHRTIATIPEKYEYEYWGQGTLVTVSS[skipping human IgG1 Fc]
notes: humanized HCAb: sdAb fused with human Fc region
B2: AS06750VH11 HCAb (Fc fusion)
chain: B1 chain with L45R, W47F, A49S, S75A, V79L, A88P
notes: as for B1
B3: AS06730SVH12 HCAb (Fc fusion)
chain: EVQLVESGGGLVQPGGSLRLSCAASGRTFITYAIGWFRQAPGKGREFVSAISWSGSMTSYADSVKGRFTISRDNAKNTLYLQMNSLRPEDTAVYYCAAHRGAIAPIAQSVYTNWGQGTLVTVSS[skipping human IgG1 Fc]
notes: as for B1
B4: AS06730S HCAb (Fc fusion)
chain: B3 chain with E1Q, P14A, G44E, L79V, S85G, R87K, L119Q
notes: variant HCAb: sdAb fused with human Fc region
B5: AS11948SVH12 HCAb (Fc fusion)
chain: EVQLVESGGGLVQPGGSLRLSCAASGRTFVTYGMGWFRQAPGKGREFVSAISWSGSMTSYGDSVKGRFTISRDNAKNTLYLQMNSLRPEDTAVYYCAAALGAVVYTTREPYTYWGQGTLVTVSS[skipping human IgG1 Fc]
notes: humanized HCAb: sdAb fused with human Fc region; also called AS11948VH12 HCAb; AS11948SV12
B6: AS11948SVH12M8 HCAb (Fc fusion)
chain: B5 chain with M57I
notes: humanized HCAb: sdAb fused with human Fc region; also called AS11948VH12M8 HCAb; AS11948SV12M8
B7: AS11948S HCAb (Fc fusion)
chain: B5 chain with P14A, G16D, A23V, G44E, S49A, T69A, L79V, R87K, Q116R, L119Q
notes: as for B4
B8: AS06730SVH12M9 HCAb (Fc fusion)
chain: B3 chain with M57L
notes: as for B1
B9: AS06730SVH12M8 HCAb (Fc fusion)
chain: B3 chain with M57I
notes: as for B1
B10: AS11948SVH12M9 HCAb (Fc fusion)
chain: B5 chain with M57L
notes: humanized HCAb: sdAb fused with human Fc region; also called AS11948SV12M9
B11: AS06730A HCAb (Fc fusion)
chain: B3 chain with E1Q, P14A, G44E, S52A, L79V, S85G, R87K, L119Q
notes: as for B4
B12: AS06730QVH2 HCAb (Fc fusion)
chain: B3 chain with R45L, F47W, S52Q, A75S, L79V, P88A
notes: as for B1
B13: AS06730QVH3a HCAb (Fc fusion)
chain: B3 chain with R45L, S52Q, A75S, L79V, P88A
notes: as for B1
B14: AS06730Q HCAb (Fc fusion)
chain: B3 chain with E1Q, P14A, G44E, S52Q, L79V, S85G, R87K, L119Q
notes: as for B4
B15: AS06730QVH1 HCAb (Fc fusion)
chain: B3 chain with F37V, R45L, F47W, S52Q, A75S, P88A, A98K
notes: as for B1
B16: AS06750VH1 HCAb (Fc fusion)
chain: B1 chain with F37V, A49S, V79L, A98K
notes: as for B1
B17: AS06750VHa HCAb (Fc fusion)
chain: B1 chain with A23T, W47F
notes: as for B1
B18: AS06750VH3 HCAb (Fc fusion)
chain: B1 chain with W47F
notes: as for B1
B19: AS11948QVH1 HCAb (Fc fusion)
chain: B5 chain with F37V, R45L, F47W, S52Q, A75S, P88A, A98K
notes: as for B1
B20: AS11948A HCAb (Fc fusion)
chain: EVQLVESGGGLVQAGDSLRLSCVASGRTFVTYGMGWFRQAPGKEREFVAAIAWSGSMTSYGDSVKGRFAISRDNAKNTVYLQMNSLKPEDTAVYYCAAALGAVVYTTREPYTYWGRGTQVTVSS[skipping human IgG1 Fc]
notes: as for B4
B21: AS11948Q HCAb (Fc fusion)
chain: B20 chain with A52Q
notes: as for B4
B22: AS11948QVH2 HCAb (Fc fusion)
chain: B5 chain with R45L, S49A, S52Q, A75S, L79V, P88A
notes: as for B1
B23: AS11948QVHa HCAb (Fc fusion)
chain: B5 chain with A23V, S52Q, A75S, L79V, P88A
notes: as for B1

Changes are numbered by the printed parent chain.

T1 sequence (Q9NZQ7 19-239 limits assumed): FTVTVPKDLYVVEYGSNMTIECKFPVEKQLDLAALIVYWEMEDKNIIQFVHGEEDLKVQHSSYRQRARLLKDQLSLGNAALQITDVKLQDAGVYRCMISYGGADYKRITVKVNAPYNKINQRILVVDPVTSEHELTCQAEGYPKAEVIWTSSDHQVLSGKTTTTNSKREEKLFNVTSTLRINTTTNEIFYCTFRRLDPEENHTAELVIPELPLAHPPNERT

The first experiment has as its target human PD-L1 on CHO-K1 cells (human, UniProt Q9NZQ7). Put plainly: cell-based or functional assay.
As to B1, the “EC50 of PD-L1-based blockade assay (luciferase reporter)” value (“EC50 of PD-L1-based blockade assay” for short) amounted to 4.44 nM.
B2: the “EC50 of PD-L1-based blockade assay” value came to 3.61 nM.
As to B3, the “EC50 of PD-L1-based blockade assay” value was found to be 4.6 nM.
Same read-out and setting: under B4 stands 2.54 nM; under B5, 2.91 nM; under B6, 7.86 nM.
Same read-out and setting: under B7 stands 3.28 nM.

Another experiment concerns the target T1, recombinant human PD-L1 His protein (human, UniProt Q9NZQ7 partial chain).
T1 construct: not shown: His tag
Kind of experiment: SPR Biacore T200, HCAb captured by anti-human IgG, PD-L1 His analyte. The method, then:
(§1) Association and dissociation phases were 5 and 10 min, respectively. The chip was regenerated using Glycine/HCl pH 1.5.
A general note: SPR reads the build-up and loss of mass on a sensor chip optically.
For B3, the equilibrium dissociation constant (Kd) is 6.1 nM, the koff was determined as 0.0018 s⁻¹ and the kon came to 300000 M⁻¹ s⁻¹.
In the same order, the values of B8 are 30 nM, 0.012 s⁻¹ and 400000 M⁻¹ s⁻¹.
Consider B9, for which the Kd came to 18 nM, the koff was 0.0065 s⁻¹ and the on-rate (kon) came to 360000 M⁻¹ s⁻¹.
For B5, in that order: 3.7 nM, 0.0015 s⁻¹ and 400000 M⁻¹ s⁻¹.
For B6, in that order: 22 nM, 0.0095 s⁻¹ and 430000 M⁻¹ s⁻¹.
For B10, in that order: 16 nM, 0.0063 s⁻¹ and 400000 M⁻¹ s⁻¹.

A further experiment has as its target T1, recombinant human PD-L1 His protein. Put plainly: SPR affinity ranking, PD-L1/His as ligand on chip.
For the molecule B11, the Kd was found to be 34.6 nM, the koff amounted to 0.0241 s⁻¹ and the on-rate (kon) stood at 696000 M⁻¹ s⁻¹.
In the case of B3, the Kd worked out at 6.1 nM and the off-rate (koff) was determined as 0.0018 s⁻¹.
Consider B12, for which the Kd came out at 4.14 nM, the koff was found to be 0.00219 s⁻¹ and the kon worked out at 530000 M⁻¹ s⁻¹.
In the same order, the values of B13 are 91.4 nM, 0.212 s⁻¹ and 2.32e+06 M⁻¹ s⁻¹.
With B14, the Kd came out at 3.21 nM.
As to B8, the dissociation constant Kd was 37 nM, the koff is 0.012 s⁻¹ and the on-rate constant (kon) worked out at 320000 M⁻¹ s⁻¹.
For B9, in that order: 21 nM, 0.0065 s⁻¹ and 310000 M⁻¹ s⁻¹.
For B4, in that order: 2.51 nM, 0.000573 s⁻¹ and 229000 M⁻¹ s⁻¹.
In the same order, the values of B15 are 2.24 nM, 0.00579 s⁻¹ and 2.58e+06 M⁻¹ s⁻¹.

The next experiment has the same target. Put plainly: SPR affinity ranking, PD-L1/His as ligand on chip. This is another data set of the same source.
Regarding B1, the Kd was 1.55 nM, the off-rate (koff) stood at 0.000329 s⁻¹ and the kon was 212000 M⁻¹ s⁻¹.
In the same order, the values of B16 are 35.7 nM, 0.00253 s⁻¹ and 70800 M⁻¹ s⁻¹.
In the same order, the values of B17 are 1.63 nM, 0.000308 s⁻¹ and 189000 M⁻¹ s⁻¹.
In the same order, the values of B18 are 1.75 nM, 0.000355 s⁻¹ and 202000 M⁻¹ s⁻¹.
On to B2, for which the Kd was found to be 1.9 nM, the koff is 0.00027 s⁻¹ and the kon amounted to 140000 M⁻¹ s⁻¹.

For another experiment the target is unchanged. Put plainly: SPR affinity ranking, PD-L1/His as ligand on chip. This is another data set of the same source.
With B19, the dissociation constant Kd was 2.41 nM, the off-rate constant (koff) stood at 0.000799 s⁻¹ and the on-rate constant (kon) amounted to 332000 M⁻¹ s⁻¹.
For B20, in that order: 95.5 nM, 0.196 s⁻¹ and 2.05e+06 M⁻¹ s⁻¹.
On to B5, for which the equilibrium dissociation constant (Kd) was 3.7 nM, the off-rate (koff) came out at 0.0015 s⁻¹ and the on-rate (kon) came out at 400000 M⁻¹ s⁻¹.
B6: the Kd turned out to be 22 nM, the koff came out at 0.0095 s⁻¹ and the kon is 430000 M⁻¹ s⁻¹.
On to B21, for which the Kd amounted to 155 nM, the koff came to 0.0465 s⁻¹ and the kon came to 301000 M⁻¹ s⁻¹.
Regarding B10, the Kd was 16 nM, the off-rate (koff) worked out at 0.0063 s⁻¹ and the on-rate (kon) was 400000 M⁻¹ s⁻¹.
With B22, the Kd stood at 89.8 nM, the koff amounted to 0.195 s⁻¹ and the association rate constant (kon) was found to be 2.17e+06 M⁻¹ s⁻¹.
Take B23: the dissociation constant (Kd) stood at 10.6 nM.
Consider B7, for which the Kd was found to be 3.8 nM, the koff was 0.000861 s⁻¹ and the kon came to 226000 M⁻¹ s⁻¹.

For a further experiment the target is unchanged. Kind of experiment: SPR Biacore T200, PD-L1 His on chip, HCAb analyte. The method, then:
as §1
As for B1, the dissociation constant (Kd) stood at 1.7 nM, the off-rate (koff) worked out at 0.00033 s⁻¹ and the on-rate (kon) came to 200000 M⁻¹ s⁻¹.
For B2, in that order: 3.2 nM, 0.0003 s⁻¹ and 95000 M⁻¹ s⁻¹.
In the same order, the values of B4 are 4.9 nM, 0.00035 s⁻¹ and 71000 M⁻¹ s⁻¹.
With B7, the equilibrium dissociation constant (Kd) is 3.8 nM, the off-rate (koff) worked out at 0.0011 s⁻¹ and the kon was found to be 290000 M⁻¹ s⁻¹.

The Kd is the equilibrium constant for the complex coming apart. As usually defined, the koff is a measure of how fast the partners let go of each other. Broadly, the kon is the second-order rate constant of association.

The record behind these values is patent US20240101716A1 (LA NOVA MEDICINES DEVELOPMENT, published 2024).
